From PubChem BioAssay AID1347120 (National Center for Advancing Translational Sciences (NCATS), 2019)
Hit rate of the full screen: of about 390,000 compounds, about 930 (0.24%) were called active. Inconclusive means that the source gave no clear call. Such entries were picked first, then a sample of the others. The call rests on the fitted dose curve; in most records, active means well fitted activation curve with a large enough effect; inconclusive means small, poorly fitted or top-dose-only effect; inactive means no such curve, though single readings can be large or run the other way. Potencies of inconclusive entries are doubtful fits and often do not repeat.

Assay: qHTS for Suppressors of FUS Proteinopathy: Primary screen using FUS-linked yeast assay; further: nearly all actives have a fitted effect of over 55% in size
Settings: S. cerevisiae FUS-expressing, OD600, 24 h; Potency: growth rescue; series mostly up to 76.6 µM
Procedure, shortened: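 S. cerevisiae expressing FUS from galactose induction served as the toxicity model. Growth after 24hr at 30C, read as absorbance at 600 nm, indicates suppression of toxicity; compounds dosed at several concentrations.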
Potency means the concentration at half of the fitted maximal effect; tags describe the fitted curve by direction and shape.

SMILES	Potency
Cc1ccc(C)c(N2CCN(C(=O)Cn3cccc3)CC2)c1	inconclusive: 50.1 µM [activator, partial curve, poor fit]
COc1ccc(S(=O)(=O)Nc2ccc3c(c2)C(=O)N([C@H](C)CO)C[C@H](C)[C@@H](CN(C)S(=O)(=O)c2cccs2)O3)cc1	inconclusive: 28.2 µM [activator, single point]
O=C(NN1CCN(Cc2ccccc2)CC1)c1ccc(N2CCOCC2)c([N+](=O)[O-])c1	inactive
CCN(c1ccccc1)S(=O)(=O)c1ccc(Cl)c(NC(=O)CSc2nnc(C)s2)c1	inconclusive: 12.6 µM [activator, partial curve]
CS(=O)c1ccccc1-c1nc(-c2cccc(Cl)c2)no1 (configuration not stated)	inactive
COc1ccc(N2CCN(C(=O)c3ccc(NS(=O)(=O)c4ccc(F)c(F)c4)cc3)CC2)cc1	inconclusive: 35.5 µM [activator, single point]
O=C(OCc1cn(Cc2cccc(F)c2F)nn1)N1CCOCC1	inactive
COc1ccc(NC(=O)N2CCc3c(sc4c3CCCC4)C2c2ccc(F)cc2)cc1 (configuration not stated)	inconclusive: 8.91 µM [activator, full curve, poor fit]
COc1ccc(OCC(=O)Nc2ccc(N3CCN(C(=O)c4ccccc4)CC3)c(Cl)c2)cc1	inconclusive: 6.31 µM [activator, full curve]
CC(C)(C)OC(=O)N1CCC(NC(=O)c2ncn(Cc3ccccc3)c2C(=O)NC2CCN(C(=O)OC(C)(C)C)CC2)CC1	inconclusive: 25.1 µM [activator, single point]
O=C(O)c1cccc(NC(=O)c2cccc(S(=O)(=O)Nc3cccc(C(=O)O)c3)c2)c1	inactive
COc1ccc(S[C@]2(C(=O)N3CCCC3)CC(=O)N(C(=O)/C=C/c3ccccc3)[C@@H]2c2ccc(OC)cc2)cc1	inconclusive: 17.8 µM [activator, single point]
O=C(CSc1nnc(-c2ccc(O)cc2)n1Cc1ccccc1)NNC(=O)c1ccc(Br)cc1	inconclusive: 50.1 µM [activator, single point]
Clc1ccc(CN2CCN(N=Cc3cccc(OCc4ccccc4)c3)CC2)cc1	inactive
CCOc1cccc(/C=N/NC(=O)c2cccnc2)c1O	inactive
Cc1ccc(S(=O)(=O)N2CCC(C(=O)N3CCCCCCC3)CC2)cc1C	inconclusive: 25.1 µM [activator, single point]
CCN(CC)C(=O)COc1ccc(/C=C(\C#N)S(=O)(=O)c2ccccc2)cc1OC	inconclusive: 50.1 µM [activator, single point]
